The values below come from PubChem BioAssay AID1346428 (National Center for Advancing Translational Sciences (NCATS), 2018).

Each structure is given as a SMILES string. Where “and” joins values, the source holds several entries; their conditions need not be identical. Equal values may be shown once. In all, about 48,000 compounds went through this assay and about 1,200 (2.5%) were called active. Inconclusive results (about 2%) are left out.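 Rule for the calls: active = activation of at least 60% and not above a set upper limit (about 1 call in 100 departs from these limits); inconclusive = activation of 40% to 60%, or above that upper limit; inactive = activation under 40%.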 This is one part of the list.

Chain of UniProt O75388 (O75388 whole entry, looked up): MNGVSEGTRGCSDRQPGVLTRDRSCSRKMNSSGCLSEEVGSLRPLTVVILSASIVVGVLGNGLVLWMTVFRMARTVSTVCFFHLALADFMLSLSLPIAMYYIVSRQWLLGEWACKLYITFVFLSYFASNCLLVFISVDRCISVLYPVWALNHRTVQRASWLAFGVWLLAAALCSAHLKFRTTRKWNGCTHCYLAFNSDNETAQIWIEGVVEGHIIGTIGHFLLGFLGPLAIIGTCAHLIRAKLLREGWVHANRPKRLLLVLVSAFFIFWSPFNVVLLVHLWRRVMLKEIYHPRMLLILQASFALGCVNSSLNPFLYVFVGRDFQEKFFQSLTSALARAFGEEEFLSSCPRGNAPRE

This test deals with Probable G-protein coupled receptor 32 (Homo sapiens) (UniProt O75388). Description: qHTS for Agonists of Human Resolvin D1 Receptor DRV1. Note: 0% is about no effect. To be noted: CHO-K1 GPR32 beta-arrestin PathHunter luminescence, 90 min; at 76.9 µM; hits give high values; zero percent set by DMSO-only wells. The method in brief:
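Using DMSO wells as EC0, agonist-induced signal was taken as chemiluminescence from beta-Gal reconstituted upon beta-arrestin recruitment to GPR32 in CHO-K1 cells after 90 min compound treatment.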
(Quantitative high-throughput screening tests each substance at several concentrations.)
Regarding `COc1cc(Nc2ncc3c(n2)CCN(Cc2ccc(OC(C)C)c(OC)c2)C3)cc(OC)c1`, the activation was inactive: -4.34%.
In the case of `Cc1ccc(C(=O)Nc2nnc(S(=O)(=O)N(C)Cc3ccc(Cl)cc3)s2)cc1` it was inactive: 0.742%; in that of `CCc1nn2c(=O)cc(COC(=O)c3ccc(NC(=O)COc4ccccc4C)cc3)nc2s1`, inactive: -0.955%.
In the case of `COc1ccc(NC(=O)c2csnn2)cc1Cl` it was inactive: -10.1%; in that of `Cc1ccc(Cc2cnc(NC(=O)c3ccc4c(c3)CC(c3ccccc3)OC4=O)s2)cc1` (stereo not given), inactive: 9.75%.
To `O=C(NC1CC(=O)N(c2ccc(F)cc2)C1)C1CCCC1` (stereo not given) belongs inactive: -5.41%; to `Cc1c(C(=O)Nc2ccc(F)cc2F)oc2c1-c1nn(Cc3c(F)cccc3Cl)cc1CC2`, inactive: -21.2%; to `N#Cc1ccccc1NC(=O)CSc1nc(-c2ccccc2)cc(C(F)(F)F)c1C#N`, inactive: 11.4%.
Consider `CCc1ccc(N2CC(c3nnc(NC(=O)c4ccco4)s3)CC2=O)cc1` (stereo not given), for which the activation is inactive: -1.39%.
To `CCOC(=O)c1c(NC(=O)c2ccc(C)cc2)sc2c1CCCCC2` belongs inactive: 25.2%; to `COc1ccc(C)cc1NC(c1nnc(-c2ccccc2)o1)c1ccc(F)cc1Cl` (stereo not given), inactive: -39.4%.
To `CC(=O)c1ccc(S(=O)(=O)Nc2ccc(-c3cn4c(C)csc4n3)cc2)cc1` belongs inactive: -25.5%.
In the case of `COc1cc(Cl)c(C)cc1NC(=O)c1cc(S(=O)(=O)N2CCCC2)ccc1F` it was inactive: 0.851%; in that of `Cc1cc(NC(=O)c2ccccc2F)ccc1-c1nc2ccccc2s1`, inactive: -0.713%.
`Cc1ccc(-n2cnc3cc(C(=O)NCCC4=CCCCC4)ccc32)c(C)c1`: the activation is inactive: -2.42%.
In the case of `CCOC(=O)c1c(NC(=O)/C(C#N)=C/c2ccc(OC)cc2)sc2c1CCC2` it was inactive: -10.1%; in that of `CCOC(=O)Cc1ccc(NC(=O)N(Cc2ccc(OC)cc2)C2CCN(C(C)=O)CC2)cc1`, inactive: -11.6%; in that of `COc1ccc(NC(=O)c2ccc3oc(=O)c(S(=O)(=O)c4ccc(F)cc4)cc3c2)cc1OC`, inactive: -2.36%.
Regarding `COc1ccc(C(=O)N2CC(=O)Nc3ccc(Br)cc3C2c2ccc(F)cc2)cc1OC` (stereo not given), the activation is inactive: -13.2%.
Regarding `Cc1cccc(C)c1OCC(=O)N(Cc1ccccc1F)C1CCS(=O)(=O)C1` (stereo not given), the activation was inactive: -15%.
As to `CCc1ccc(NC(=O)c2sc(-n3nc(C)c(CCC(C)C)c3C)nc2C)cc1`, the activation is inactive: -1.27%.
To `CC(C)c1nn2c(=O)cc(COC(=O)C3CCCCC3)nc2s1` belongs inactive: 12.7%.
To `Cc1ccc(S(=O)(=O)c2nnn3c2nc(NC2CCCCCC2)c2sccc23)cc1C` belongs inactive: -11.1%; to `CCCOc1cccc(C2c3c(oc4ccc(F)cc4c3=O)C(=O)N2CCCN2CCOCC2)c1` (stereo not given), inactive: -4.19%.
In the case of `Cc1ccc(CN(Cc2ccco2)C(=O)c2ccccc2Br)o1` it was inactive: -26.4%.
Take `CCCOc1ccc(-c2nonc2NC(=O)c2ccco2)cc1OCCC`: the activation is inactive: 7.29%.
To `CC1CCN(C(=O)c2cc3c(=O)n(C)c4cc(Cl)ccc4c3s2)CC1` belongs inactive: -8.13%; to `Cc1nc(-c2ccc(S(=O)(=O)N3CCN(c4cccc(C(F)(F)F)c4)CC3)cc2)co1`, inactive: 0.879%.
To `COc1cc2c(CCNC(C)=O)c[nH]c2cc1Cl` belongs inactive: 2.49%.
In the case of `Cc1cc(Br)cc(C)c1NC(=O)c1sc2ncn(Cc3cccc(F)c3)c(=O)c2c1C` it was inactive: -2.61%; in that of `CCNC(=O)c1ccc(C)c(-n2c(C)nc3cccnc32)c1`, inactive: 5.65%.
For `Cc1ccc(NC(=O)Cn2c(=O)c3ccc(Cl)cc3n3nncc23)cc1`, the activation is inactive: 8.67%.
Regarding `Cc1ccc(S(=O)(=O)NC(=O)NN2CCCCCC2)cc1`, the activation was inactive: 8.06% and inactive: 1.98%.
To `COc1cccc(-c2csc(-c3c(N)c(C(=O)c4ccc5c(c4)OCO5)n4ccccc34)n2)c1` belongs inactive: -6.56%.
To `CCOc1ccc(C2C(C(=O)Nc3ccccc3)=C(C)Nc3nc(-c4ccccc4)nn32)cc1OC` (stereo not given) belongs inactive: -8.85%.
To `O=C(Cn1c(-c2cccs2)cc2ccccc21)N1CCN(c2ccc(Cl)cc2)CC1` belongs inactive: -9.66%; to `COc1cccc(OC)c1C(=O)N[C@@H]1C(=O)N2[C@@H]1SC(C)(C)[C@@H]2C(=O)O`, inactive: -8.61%.
`COc1ccc(-c2cn3c(n2)sc2cc(C(=O)NCCC4=CCCCC4)ccc23)cc1`: the activation is inactive: -20.9%.
Regarding `O=c1c2cnn(-c3ccc(F)cc3)c2ncn1Cc1ccccc1Cl`, the activation is inactive: -4.94%.
In the case of `Cc1cc(C)n(CCc2nc3c4ccccc4nc(SCc4ccc(F)cc4)n3n2)n1` it was inactive: -10%; in that of `COc1ccc(OC)c(NC(=O)C(C)n2c(=O)cc(C)c3c(C)nn(-c4ccccc4)c32)c1` (stereo not given), inactive: -1.87%; in that of `CCc1ccc(NCc2cc3ccc(OC)cc3n(CC(=O)Nc3ccccc3C)c2=O)cc1`, inactive: -12.5%.
To `COc1ccc(NC(=O)CSc2nc(-c3cccs3)cc(C(F)(F)F)n2)cc1Cl` belongs inactive: 33.8%; to `Cc1ccc(CSC2=Nc3ccccc3C3=NC(CCC(=O)NC4CCCCC4)C(=O)N23)cc1` (stereo not given), inactive: -29.6%.
In the case of `COC(=O)c1ccc(Cl)cc1NC(=O)Nc1nnc(N(C)C2CCCCC2)s1` it was inactive: 7.58%; in that of `COc1ccc(CCC(=O)NCc2ccc3c(c2)CCN3C(=O)c2ccc(Cl)cc2)cc1`, inactive: -18%; in that of `Cc1ccc(CNC(=O)C(NS(=O)(=O)c2cccs2)C(C)C)cc1` (stereo not given), inactive: -4.38%.
For the compound `CCCCN(CCCC)CCNC(=O)Cn1nc(CC)n2c(cc3sccc32)c1=O`, the activation was inactive: -5.54%.
To `CCC1=Nc2cc(C(=O)NCCc3ccc(OC)c(OC)c3)ccc2Sc2ccccc21` belongs inactive: -4.46%; to `CCc1ccc(C(=O)CC2(O)C(=O)N(CCc3ccccc3)c3ccc(Br)cc32)cc1` (stereo not given), inactive: 9.96%; to `CCc1c(C)sc2c1CCN(Cc1cccc(OC)c1)C2c1ccccc1` (stereo not given), active: 61.4%.
As for `CC(=O)c1cccc(NC(=O)CSc2nc3c(c(=O)[nH]2)CCC3)c1`, the activation is inactive: 23%.
To `CCc1ccc2oc(C(=O)Nc3ccccc3OC)cc(=O)c2c1` belongs inactive: 4.56%; to `COc1ccc(-n2nc3ccc(NC(=O)c4c(OC)cccc4OC)cc3n2)cc1`, inactive: -0.963%; to `O=C(Cn1c(=O)n(-c2ccc(F)cc2)c(=O)c2sc3ccccc3c21)NC1CCCC1`, inactive: 10.8%.
For `CCCCCCCCCC(=O)NC(CN1CCOCC1)[C@H](O)c1ccccc1` (stereo not given in full), the activation was inactive: -19.8%.
To `CCc1nc2ccccc2n2c(-c3ccc(C)cc3)c3c(=O)n(C)c(=O)n(C)c3c12` belongs inactive: 23.7%.
In the case of `Cc1cc(C)cc(NC(=O)C2CCCN(S(=O)(=O)c3cccc4nsnc34)C2)c1` (stereo not given) it was inactive: -7.56%; in that of `Fc1ccc(Nc2nc(SCc3ccccc3Cl)nc3ccccc23)cc1`, inactive: -10%.
In the case of `Cc1cccc(N2CCN(C(c3ccccc3)c3nnc(-c4ccccc4F)o3)CC2)c1C` (stereo not given) it was inactive: -36.6%.
Consider `CCOC(=O)c1c(C)[nH]c(C)c1S(=O)(=O)NCC(=O)Nc1ccc(C)cc1C`, for which the activation is inactive: 18.7%.
To `COc1ccc(CSc2nc3ccncc3n2CC(=O)Nc2cc(C)cc(C)c2)cc1` belongs inactive: 5.98%; to `Cc1csc2nc(COC(=O)CNC(=O)c3ccc(F)cc3)cc(=O)n12`, inactive: 10.6%.
To `NC(=O)C1CCN(C(=O)c2ccc3c(c2)N(Cc2cccc(Cl)c2)C(=O)c2ccccc2S3=O)CC1` (stereo not given) belongs inactive: -2.93%; to `CCOC(=O)c1c(C)[nH]c(CCC(=O)NCc2ccc(OC)c(OC)c2)c1C`, inactive: -17.8%.
In the case of `CCn1c2ccccc2c2nnc(N3CCN(c4cccc(Cl)c4)CC3)nc21` it was inactive: -22%; in that of `COc1ccc(S(=O)(=O)N2CCC(N3CCN(Cc4ccccc4)C(=O)C3=O)CC2)cc1`, inactive: -7.63%; in that of `Cc1nc(C2CCCCC2)c(-c2ccc(S(N)(=O)=O)c(F)c2)o1`, inactive: 1.57%.
As for `Cc1ccc(N2CCn3c2nc2c3c(=O)n(C/C=C/c3ccccc3)c(=O)n2C)cc1C`, the activation is inactive: -7.46%.
In the case of `CCc1ccc(NC(=O)CCc2c(C)nc3nc(-c4cc(OC)cc(OC)c4)nn3c2C)cc1` it was inactive: -1.78%; in that of `COCCCNC(=O)Cn1c(=O)n(-c2cccc(C)c2)c(=O)c2c1c1cc(C)ccc1n2C`, inactive: -10.3%.
Take `COc1ccc(CNC(=O)Cc2c(C)c3cc4c(C)coc4cc3oc2=O)cc1`: the activation is inactive: -5.36%.
Take `Cc1cc(NS(=O)(=O)c2ccc(N)cc2)nc(C)n1`: the activation is inactive: 6.41%.
In the case of `Cc1ccc(CN2CCSc3ccc(C(=O)NCc4ccc(OC(C)C)cc4)cc32)cc1` it was inactive: -35%; in that of `COc1ccc(-c2noc(CCCC(=O)Nc3cccc(Cl)c3C)n2)cc1`, inactive: 6.59%.
In the case of `COc1ccccc1-c1c(C)nn2c(-c3ccccc3)cc(-c3ccccc3)nc12` it was inactive: -11.1%; in that of `CCCCCCCCCCCCCCCCOP(=O)([O-])OCC[N+](C)(C)C`, active: 93.5%.
In the case of `CCOc1ccc(C2=NC(c3ccncc3)=Nc3ccc(C)cc3N2)cc1OCC` it was inactive: -8.14%.
For `Cc1ccc(OCCn2cc(C(=O)c3cccs3)c3ccccc32)cc1`, the activation was inactive: -30.6%.
To `COc1cccc(/C=C/c2onc(C)c2S(=O)(=O)N2CCC(C(=O)N3CCCCC3)CC2)c1` belongs inactive: -12%.
To `COc1ccc(C2CC(=O)c3c([nH]c(C(=O)OCc4ccccc4)c3C)C2)cc1` (stereo not given) belongs inactive: 30.5%; to `COCc1cc(C)nc2sc(C(=O)Nc3ccccc3O)c(N)c12`, inactive: -15.9%; to `COc1ccc(N(Cc2ccccc2)C(=O)c2nc(S(C)(=O)=O)ncc2Cl)cc1`, inactive: -7.64%.
In the case of `Cc1ccccc1NC(=O)c1cc2c(-c3ccccc3)nn(-c3ccccc3)c2s1`, the activation was inactive: 10.6%.
As for `COc1ccccc1NC(=O)C1=C(C)Nc2c(C(=O)Nc3ccc(C)cc3)cnn2C1c1cccc(OC)c1OC` (stereo not given), the activation is inactive: -1.42%.
